Results published in PubChem BioAssay AID1345083 (National Center for Advancing Translational Sciences (NCATS), 2018).
Among all 94,000 compounds or so, about 6,200 (6.6%) were called active. The shares of active, inactive and inconclusive entries below differ from those in the screen. Calls come from the whole dose curve; as a rule, active = well fitted inhibition curve with a large enough effect; inconclusive = small, poorly fitted or top-dose-only effect; inactive = flat fitted curve, though single readings scatter. Potencies of inconclusive entries are doubtful fits and often do not repeat.

Assay: Cytotoxic Profiling in HEK 293 Cell Line of Diverse Libraries Using Quantitative High-Throughput Screening; note: nearly all actives have a fitted effect of over 60% in size
Settings: HEK 293 viability, ATP luminescence (CellTiter-Glo), 48-72 h; series mostly up to 115 µM
Procedure, shortened: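 HEK 293 seeded at 250 cells/well receive compound via pintool. After 48 or 72 hr at 37 degree Celsius, 5% CO2 and 95% humidity, CellTiter-Glo is dispensed and luminescence read following 10 min at room temperature.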
Potency is the fitted concentration of half-maximal effect; tags give direction and shape of the fitted curve.

Row | Structure (SMILES) | Potency
1 | COc1ccc2[nH]c(C(=O)N3CCCCCNC(=O)[C@@H]4CCC[C@@H]43)cc2c1 | inconclusive: 2.82 µM [inhibitor, full curve, poor fit]
2 | CC(C)Oc1cccc(-c2cccc(COc3ccc4c(cnn4CC[S+](C)(=O)[O-])c3)c2)c1 | active: 28.2 µM
3 | COc1ccc(C(=O)N[C@@H]2CCC[C@@H]2C(=O)NCc2c(C)n[nH]c2C)cc1 | inconclusive: 79.4 µM [inhibitor, partial curve, poor fit]
4 | CCn1cc(-c2ccc(Cl)cc2)cc1C(=O)NCCOC | inactive
5 | CCn1nc(C)c(-c2cc(C(=O)N3CCCCCCNC(=O)[C@@H]4CCCC[C@@H]43)no2)c1C | inconclusive: 100 µM [inhibitor, partial curve, poor fit]
6 | O=C(CCC1CCCN(S(=O)(=O)c2ccccc2F)C1)NCc1cc(F)ccc1F (centres undefined) | inconclusive: 44.7 µM [inhibitor, partial curve, poor fit]
7 | COc1cc(C(=O)NC2CCCN(c3cc(-c4ccccc4)[nH]n3)C2)cc(OC)c1OC (centres undefined) | inconclusive: 31.6 µM [inhibitor, partial curve]
8 | N#Cc1ccc(C(=O)N2CCc3[nH]nc(C(=O)NCCCc4ccccc4)c3C2)cc1 | inconclusive: 89.1 µM [inhibitor, single point]
9 | O=C(O)c1ccnc(-c2ccnc(NCc3noc(C4CCCC4)n3)n2)c1 | inactive
10 | COc1ccccc1Cn1c(=O)c(C(=O)NCc2ccc(F)cc2)nc2cccnc21 | inconclusive: 79.4 µM [inhibitor, partial curve]
11 | O=C(Cc1cccc(Cl)c1)N1CCNc2cnc(Nc3cccc(C(F)(F)F)c3)nc2C1 | inconclusive: 50.1 µM [inhibitor, partial curve, poor fit]
12 | COc1ccc(-c2cccc(C(=O)N3CCN(C(=O)Cc4ccccc4)CC3)c2)nn1 | inactive
13 | CCc1noc(CC2CCOC3(CCN(S(=O)(=O)c4ccc(Cl)cc4)CC3)C2)n1 (centres undefined) | inconclusive: 39.8 µM [inhibitor, full curve]
14 | CCCN1C(=O)Cc2cc(C(=O)NCc3ccco3)ccc21 | inconclusive: 8.91 µM [inhibitor, full curve, poor fit]
15 | COc1ccc(NC(=O)COc2cccc(-c3nnc4n3CCCC4)c2)cc1 | inactive
16 | CCN(CC)C(=O)N1CCCC(Cc2ncc(C)n2Cc2ccc(F)cc2)C1 (centres undefined) | inconclusive: 50.1 µM [inhibitor, partial curve, poor fit]
17 | Cc1ccc(F)cc1S(=O)(=O)N1CCN(C2CCN(CCC(C)C)C2=O)CC1 (centres undefined) | inconclusive: 100 µM [inhibitor, single point]
18 | CCC(C)n1c(C(C)CC(=O)Cc2ccccc2)nc2cccnc21 (centres undefined) | inconclusive: 89.1 µM [inhibitor, single point]
19 | CC(C)C1=NOC2(CCN(C3COC3)CC2)C1 | inactive
20 | CCCCNc1ncc(C(=O)O)c(CC)n1 | inactive
21 | O=C(c1ccc2c(c1)CCC2)N1C[C@H]2CC[C@@H]1CN(Cc1cscn1)C2 | inconclusive: 56.2 µM [inhibitor, partial curve, poor fit]
22 | CCCCCC(=O)N1C[C@@H](C(=O)OCC)[C@@H]2Oc3cc(OC)ccc3[C@@H]21 | inconclusive: 89.1 µM [inhibitor, single point]
23 | O=C(NCC1CC1)c1cc(-c2cccs2)c2cccn2n1 | active: 70.8 µM

Row | Structure (SMILES) | Potency
24 | COCCOc1cc(C)c2c(c1C)C[C@H](C(C)C(=O)N1CCCCC1)CC2 (some centres undefined) | inconclusive: 50.1 µM [inhibitor, partial curve, poor fit]
25 | Cc1cc2c(-c3ccccc3F)nc(-c3c(C)noc3C)cc2[nH]1 | inconclusive: 50.1 µM [inhibitor, partial curve, poor fit]
26 | CN(C)[C@@H]1CN(C(=O)CC2CCCCC2)CC[C@@H]1CO | inactive
27 | CCCC1CN(Cc2cccc(F)c2)C(=O)c2ccc(C)nc2O1 (centres undefined) | active: 50.1 µM
28 | O=C(CCc1conc1-c1cccc(F)c1)NCc1ccccc1Cl | inconclusive: 50.1 µM [inhibitor, partial curve, poor fit]
29 | COc1ccc(CNC(=O)c2ccc(Cn3ccn4nc5c(c4c3=O)CCCC5)cc2)cc1OC | active: 22.4 µM
30 | Cc1ccc(CN2CCOCCNC(=O)[C@H]3CCCC[C@H]32)o1 | inconclusive: 89.1 µM [inhibitor, single point]
31 | COCCN1C(=O)c2cccn2CC1CNC(=O)c1ccc(OC)nc1 (centres undefined) | inactive
32 | COc1ccc(-c2cc3c(ccn3C)c(C(=O)NCCC(N)=O)n2)cc1OC | inactive
33 | Cc1cccc(CN2CCC3(CC2)COCCN3C(=O)OCc2ccccc2)c1 | active: 39.8 µM
34 | COc1ccc(C2Cn3cnc(C(=O)N4CCC(C(=O)NCC(C)C)CC4)c3CO2)cc1 (centres undefined) | inactive
35 | Cc1c(CNC(=O)c2ccccc2C2CCNC2)oc2ccccc12 (centres undefined) | inconclusive: 89.1 µM [inhibitor, single point]
36 | CCCc1ccc(S(=O)(=O)N2CCC3(CC2)C(=O)N(CC)c2ccccc23)cc1 | inactive
37 | COC(=O)[C@@H]1Cc2ncn(C)c2CN1S(=O)(=O)c1ccc(OC)cc1 | inactive
38 | O=C(CCCc1ccccc1)NCc1nnc2cc(-c3nc(C4CC4)no3)ccn12 | inconclusive: 89.1 µM [inhibitor, single point]
39 | O=C(Nc1ccc(Oc2ccccc2)cc1)N[C@H]1CO[C@H]2[C@@H]1OC[C@@H]2Nc1nccc(-c2ccc(-c3ccccc3)cc2)n1 | inconclusive: 89.1 µM [inhibitor, single point]
40 | COc1ccc(CN2CC3(CCN(C(=O)Nc4ccc(OC)c(OC)c4)CC3)C2=O)cc1 | inconclusive: 89.1 µM [inhibitor, single point]
41 | Fc1ccc(Nc2nc(-c3ccccc3F)no2)cc1 | active: 39.8 µM
42 | CCCc1ccc2oc(C(=O)N(C)Cc3snnc3C)c(C)c2c1 | active: 39.8 µM
43 | O=C(c1cccc(Cn2cccn2)c1)N1CCOC(c2ccc(Cl)cc2)C1 (centres undefined) | inconclusive: 50.1 µM [inhibitor, partial curve, poor fit]
44 | COCC(=O)N[C@H]1CCN2C(=O)c3cc(Br)ccc3NC(=O)[C@@H]2C1 | inconclusive: 70.8 µM [inhibitor, partial curve, poor fit]
45 | O=C1CCCN1CCCN1C(=O)[C@@H]2C[C@@H](O)CN2C2(CN(Cc3ccccc3Cl)C2)C1=O | inactive
46 | CCN1c2cc(C(=O)Nc3cccc(C#N)c3)ccc2C(=O)N2CCCCCC21 (centres undefined) | active: 15.8 µM

Row | Structure (SMILES) | Potency
47 | COc1ccc(-c2cc(-c3cccc(NC(C)=O)c3)cn3cncc23)cc1 | inconclusive: 112 µM [inhibitor, partial curve]
48 | Cc1nn(-c2ccccc2)c2c1C(C)N(C1CCN(C(=O)c3ccc(F)cc3)CC1)C2=O (centres undefined) | inconclusive: 44.7 µM [inhibitor, partial curve, poor fit]
49 | Cn1nc(C(=O)NCc2cccnc2)c2c1CN(C(=O)C1CCCCC1)C2 | inactive
50 | O=C1N[C@@H]2CCN(S(=O)(=O)c3ccc(Cl)cc3)[C@@H]2C(=O)N1c1ccccc1 | inactive
51 | CCc1cc(N2CCCC(OCc3ccccn3)C2)n2nc(C)c(C)c2n1 (centres undefined) | inactive
52 | O=C(Nc1cccc(-c2nnc3n2CCCC3)c1)c1ccncc1 | inactive
53 | COc1ccc(CN2CCCC(C)(NC(C)=O)C2)c2ccccc12 (centres undefined) | inconclusive: 63.1 µM [inhibitor, full curve, poor fit]
54 | c1cc(-c2cc(-c3cn[nH]c3)cn3cncc23)ccn1 | active: 35.5 µM
55 | CC(C)NC(=O)c1nc2cccnc2n(C2CC2)c1=O | inactive
56 | COc1ccc(-c2ccccc2C(=O)N2CCC(NC(=O)Cc3cccc(Cl)c3)CC2)nn1 | inactive
57 | COc1ccc(-c2cc(N3CCCN(C(=O)CCCc4ccccc4)CC3)n[nH]2)cc1 | inconclusive: 50.1 µM [inhibitor, partial curve, poor fit]
58 | O=C(c1ccccn1)N1CCC(N2CCOCC2=O)CC1 | inactive
59 | Cc1cn2nnc(C(=O)NCC3CCCCC3)c2c(=O)[nH]1 | inactive
60 | COc1ncccc1-c1cc(-c2c(C)noc2C)cc2c1C(=O)N(C)C2=O | inconclusive: 89.1 µM [inhibitor, partial curve, poor fit]
61 | N#Cc1ccc(CN2CCCCCCNC(=O)[C@@H]3C[C@@H](C(=O)N4CCc5ccccc5C4)C[C@@H]32)cc1 | inconclusive: 39.8 µM [inhibitor, full curve, poor fit]
62 | COCCN1CCCC(c2[nH]ccc2C(=O)N2CCN(c3ccccc3)CC2)C1 (centres undefined) | inactive
63 | O=C(NCc1cccc(C(F)(F)F)c1)c1ccc2nccn2c1 | inconclusive: 89.1 µM [inhibitor, partial curve]
64 | COC(=O)c1ccc(COC[C@@H]2CN(C(C)C)S(=O)(=O)[C@H]2c2ccccc2)cc1 | active: 39.8 µM
65 | Cc1cc(C)n(CC(=O)N[C@@H]2CN(Cc3cccnc3)C[C@H]2CN(C)C)n1 | inactive
66 | Cc1ccccc1C(=O)NC1CCN(c2cc(-c3ccccc3)[nH]n2)CC1 | inconclusive: 89.1 µM [inhibitor, single point]
67 | CN1CCC2(C1)CN(CC1CCOCC1)c1ccc(C(=O)NCCCO)cc12 (centres undefined) | inconclusive: 100 µM [inhibitor, partial curve, poor fit]
68 | N#Cc1ccc(CN2CCC3(Cc4ccccc4CNC3=O)C2)cc1 (centres undefined) | inconclusive: 56.2 µM [inhibitor, partial curve, poor fit]
69 | COc1ccc(Cl)cc1C(=O)NC1CCCN(c2cc(-c3ccccc3)[nH]n2)C1 (centres undefined) | inconclusive: 50.1 µM [inhibitor, partial curve, poor fit]
